# Experimental data: PubChem BioAssay AID445 (National Center for Advancing Translational Sciences (NCATS), 2006)
# The campaign covered roughly 110,000 compounds. About 40 (0.04%) were called active. The inconclusive results got no clear call from the source; some entries with a clear call stand among them for comparison. The call rests on the fitted dose curve; in most records, active means well fitted curve in the direction sought with a large enough effect in the signal ratio (not every such curve was filed as active); inconclusive means small, poorly fitted or top-dose-only effect, or a change in a side signal; inactive means flat fitted curve, though single readings scatter; the % refers to the signal ratio. Potencies beside an inconclusive call are fits to weak or partial responses and may not hold up.
# Experiment: IkB Signaling;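 on IkBa stabilization activation: 0% = basal untreated cells and 100% = reference inhibitor full response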
# Details: ABC-DLBCL IkBa-CBG/CBR dual luciferase ratio (green luciferase fused to IkBa over red control in OCI-Ly3 lymphoma cells), 4 h; IkBa stabilization activation: at 57.1 µM (top of the series), scaled: untreated 0%, proteasome inhibitor 100% unless noted
# In short: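 In this assay, an IκBα–CBG68 fusion accumulates when IKK-driven degradation is blocked; native CBR normalizes for cell number. OCI-Ly3 cells were treated 4 h with compound and doxycycline, then green and red light read after Chroma-Glo addition.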
# Potency means the concentration at half of the fitted maximal effect.
SMILES,Potency,IkBa stabilization activation
CCCn1c(CNc2ccccc2O)nc2ccccc21,"inconclusive: 12.6 µM [signal inhibitor, partial curve]",
Cc1cccc(C)c1NC(=O)Cn1c(=O)n(CCC(=O)NCc2ccc3c(c2)OCO3)c(=O)c2sccc21,,inactive
Cc1oc(-c2ccccc2)nc1Cn1c(=O)cc(-c2ccccc2)c2c(C)nn(C)c21,,inactive
O=S(=O)(c1cccc2c(I)cccc12)N1CCCNCC1,,inactive
Cc1ccc(NC(=O)c2cnc(SCC(=O)N3CCCc4ccccc43)n(C)c2=O)cc1C,,inconclusive: 7.08% [signal inhibitor]
Cn1c(CC2C(=O)Nc3ccc(Br)cc32)nc2ccccc2c1=O (stereo unspecified),,inconclusive: 4.75% [signal inhibitor]
O=C(CN1C(=O)COc2ccc(S(=O)(=O)N3CCCC3)cc21)NCCc1ccc(Cl)cc1,,inconclusive: 0.225% [signal inhibitor]
C=CCn1c(C)cc(C(=O)CSc2nc3ccccc3c(=O)[nH]2)c1C,,inconclusive: 9.75% [signal inhibitor]
O=c1[nH]c2ccc(NS(=O)(=O)c3ccc(F)cc3)cc2s1,,inconclusive: 5.55% [signal inhibitor]
CC1CCN(c2nn3c(=O)c(C(=O)NCCc4ccc(Cl)cc4)cnc3s2)CC1,,inactive
COc1ccc2oc(=O)cc(CN3CCN(C(=O)c4ccccc4Br)CC3)c2c1,,inconclusive: 4.33% [signal inhibitor]
CCNc1nc(NC(C)(C)C)nc(N(C#N)CC)n1,,inactive
CCOC(=O)c1ccc2nc(NC(=O)c3ccco3)sc2c1,,inconclusive: 11.1% [signal inhibitor]
CCc1ccc(CNC(=O)c2ccc(NC(=O)N3CCSc4ncccc43)cc2)cc1,,inconclusive: 2.19% [signal inhibitor]
CCc1nc2nc(C)cc(Nc3cc(Cl)ccc3OC)n2n1,,inactive
Cc1ccc(S(=O)(=O)N2CCC(c3nnc(-c4cccc(C)c4)o3)CC2)cc1,,inconclusive: 0.309% [signal inhibitor]
COc1cc(Cl)c(C)cc1NC(=O)CSc1nc2ccccc2o1,,inconclusive: 5.07% [signal inhibitor]
CCOc1ccc(CNC(=O)CCc2c(C)nn(-c3ccc(N4CCOCC4)nn3)c2C)cc1,,inactive
O=c1c2ccccc2c(/C=N/c2ncn[nH]2)c(O)n1Cc1ccccc1,,inconclusive: 0.232% [signal inhibitor]
CC(C)NC(=O)Cn1c(=O)nc(-c2ccccc2)c2ccccc21,,inconclusive: 1.04% [signal inhibitor]
CCOc1ccc(CCNC(=O)c2ccc(C)c(-n3cnc4cccnc43)c2)cc1,,inconclusive: 2.79% [signal inhibitor]
Cc1cccc(N(C)C(=O)CS(=O)(=O)c2cccc3nsnc23)c1,,inconclusive: -0.928% [signal inhibitor]
COc1cccc(CNC(=O)c2ccc3c(Cl)c4c(nc3c2)CCCC4)c1,,inconclusive: 11.1% [signal inhibitor]

SMILES,Potency,IkBa stabilization activation
Cc1ccc(C(C)C)c(OCc2ccc(C(=O)Nc3ccc(S(N)(=O)=O)cc3C)o2)c1,,inconclusive: -1.47% [signal inhibitor]
CCn1c(SCC(=O)c2c[nH]c3ccccc23)nnc1-c1cccs1,,inactive
O=C(Nc1cc(-c2ccc(F)c(F)c2)no1)c1ccccc1F,"inconclusive: 31.6 µM [signal inhibitor, partial curve]",
Cc1cccc(N2CCN(C(=O)C3CCCN(C(=O)c4cc5sccc5n4C)C3)CC2)c1C (stereo unspecified),,inconclusive: -0.834% [signal inhibitor]
COc1ccc(N2CCN(c3ncnc4onc(C)c34)CC2)cc1,,inconclusive: -4.49% [signal inhibitor]
CC1=C(C(=O)Nc2ccc(F)cc2)C(c2ccc(N(C)C)cc2)NC(=O)N1 (stereo unspecified),,inactive
CCOc1ccc(CCNC(=O)Cn2ccc3cc(S(=O)(=O)N4CCCCCC4)ccc32)cc1,,inconclusive: -0.193% [signal inhibitor]
COc1ccc(NC(=O)C(=O)c2cc(C)n(-c3ccc(C)cc3)c2C)cc1Cl,,inconclusive: 0.0548% [signal inhibitor]
Cn1c(CC(=O)Nc2ccccc2)nnc1SCCOc1ccccc1,,inconclusive: 13.8% [signal inhibitor]
COc1ccccc1Nc1nc(C)cc(=O)[nH]1,,inactive
C/C(=N\O)c1ccc2c3c([nH]c2c1)CCCC3,,inactive
CC(C)c1ccc(NC(=O)c2cc(S(=O)(=O)NC3CCCCC3)ccc2F)cc1,,inconclusive: -1.22% [signal inhibitor]
Cc1cccc(NC(=O)CN(C)S(=O)(=O)c2cccc3cccnc23)c1,,inconclusive: 10.4% [signal inhibitor]
COC(=O)c1cc(C)nc2c1c(=O)nc(SCc1cccc(C(F)(F)F)c1)n2C1CC1,,inconclusive: -1.2% [signal inhibitor]
O=C(C1CCC(CNS(=O)(=O)c2cccs2)CC1)N1CCN(c2ccc(Cl)cc2)CC1 (stereo unspecified),,inconclusive: 0.0207% [signal inhibitor]
COc1ccc(CCNC(=O)Cn2c(=O)nc(-c3ccccc3F)c3cc(Cl)ccc32)cc1OC,,inconclusive: -3.3% [signal inhibitor]
Cc1ccc2[nH]c(CSc3nnc(C)s3)cc(=O)c2c1,,inactive
N[C@@H](Cc1ncccn1)C(=O)O,,"inactive: -0.637% [at 11.4 µM, scaled: untreated 0%, proteasome inhibitor 100%]"
CCCn1c(SCC(O)c2cccc(OC)c2)nc2ccccc21 (stereo unspecified),,inconclusive: 1.9% [signal inhibitor]
Cc1ccc2c(c1)NC(=O)C(CC(=O)NCCCN1CCN(c3cc(Cl)ccc3C)CC1)O2 (stereo unspecified),,inconclusive: 5.86% [signal inhibitor]
COc1cc(NCCCC(C)N)c2ncccc2c1 (stereo unspecified),,inconclusive: 1.79% [signal inhibitor]
Cc1cc(N2CCCC2)n2nc(C)nc2n1,,inactive
Cc1cnc(C)c(N2CCC(C(=O)NCc3cccs3)CC2)n1,,inconclusive: 5.53% [signal activator]
